# PubChem BioAssay AID588855 (National Center for Advancing Translational Sciences (NCATS), 2011)
# The campaign covered roughly 410,000 compounds. About 5,000 (1.2%) were called active. The shares of active, inactive and inconclusive entries below differ from those in the screen. The call rests on the fitted dose curve; in most records, active means well fitted inhibition curve with a large enough effect; inconclusive means small, poorly fitted or top-dose-only effect; inactive means no such curve, though single readings can be large or run the other way. Potencies beside an inconclusive call are fits to weak or partial responses and may not hold up.
# Experiment: qHTS for Inhibitors of TGF-b; further: nearly all actives have a fitted effect of over 65% in size
# Conditions: HepG2 CAGA-GFP TGF-b/SMAD3 reporter, GFP fluorescence, 18 h, TGF-beta stimulated, 500 pg/mL final; series mostly up to 46.1 µM
# From the text: TGF-b is a main component in the TGF-b signaling pathway which plays diverse roles in cellular and development pathways. TGF-b is the mediated by the transcription factors Smads. Although the Smad-dependent pathway is the primary canonical TGF-b signaling node, TGF-b1 can also activate alternative signaling pathways, including those involving MAPK (ERK, JNK and p38). This interaction may mediate or enhance Smad-dependent responses, or can exert Smad-independent effects. The complexity of this signaling cascade allows the TGF-b superfamily to perform unique, overlapping or redundant functions. […] We aim to identify Smad3-small molecule antagonists using a quantitative high throughput screening (qHTS) approach. […]
# Suspensions of trypsinized HEPG2 CAGA-GFP cells were dispensed into white, tissue culture-treated, solid 1536-well plates at 5uL/well (1000 cells/well final concentration) in DMEM medium supplemented with 1% FBS. […] The plates were measured on an Acumen eX3 Explorer plate reader for GFP fluorescence (ex488/em500-530). GFP values were calculated by determining the mean GFP fluorescence of individual cells, and compiling these values for each well to determine a total well GFP signal. The %Activity was determined from the corrected fluorescence values. […]
# Concentration-response curves were fitted to the signals arising from the resulting fluorescence. […]
# Potency means the concentration at half of the fitted maximal effect; tags describe the fitted curve by direction and shape.
row,Structure (SMILES),Potency
1,COc1cccc(C2C3=C(N=c4s/c(=C\c5ccc(OCC(=O)O)cc5)c(=O)n42)c2ccccc2CC3)c1 (configuration not stated),"inconclusive: 12.6 µM [inhibitor, partial curve, poor fit]"
2,O=C(Nc1ccc(-c2nc3ccccc3[nH]2)cc1)c1ccccc1NS(=O)(=O)c1ccc(F)cc1,"inconclusive: 35.5 µM [inhibitor, single point]"
